Reference: PubChem BioAssay
The inconclusive results got no clear call from the source; some entries with a clear call stand among them for comparison. Calls of active or inactive are those of the source.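 Rule for the calls, unless noted: active = viability at or under a set limit in both replicates, limit being median viability minus 3 SD (cut at about 48% in these data, passing the limit was not always enough); inconclusive = at or under the limit in just one replicate; inactive = at or above the limit in both replicates.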

Legend:
[1] = HUVEC growth inhibition – cell-based, human, primary screen (AID 575;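 active = viability at or below 30% in both replicate assays; inconclusive = viability at or below 30% in just one of the two assays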;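 note: 100% = median of untreated cell wells with 0.1% DMSO on each plate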); conditions: HUVEC proliferation, CellTiter-Glo luminescence, 72 h; at 10 µM; stronger effect = lower value
How it was run: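 System – primary HUVEC, no more than 12 passages · Medium – Low-serum (2% FBS) EBM, supplemented · Times – 72 h exposure, 37 °C, 5% CO2, 30 min RT equilibration · Measured by – luminescent ATP assay · Read-out – % viability relative to median vehicle-well signal on each plate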

[2] = growth inhibitors of H69AR lung tumor, primary screen, human, duplicate replicates (AID 580); conditions: H69AR lung tumor cells viability, ATP luminescence, 72 h; at 10 µM; stronger effect = lower value;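 note: 100% = mean luminescence of untreated wells and 0% = no signal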
[3] = inhibitors of the yeast RAM network, pilot screen, dse1pr::URA3 reporter, 5-FOA selection (AID 869;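 active = inhibition over a set limit, the all-compound mean plus 3 SD, in both replicate runs; inconclusive = over that limit in just one replicate run; inactive = at or under that limit in both runs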;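 note: 0% = DMSO wells with no growth and 100% = 10 µM 1-NA-PP1 with full growth; RAM network block rescues cells from 5-FOA so hits raise OD615 growth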); conditions: S. cerevisiae dse1pr::URA3 5-FOA growth, OD615, 2 d; at 10 µM; stronger effect = higher value
[4] = RAM signaling pathway blockade in yeast – S. cerevisiae, Pdr1DBD-CYC8 efflux-inhibited sensitized strain, primary screen (AID 1298;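 active = RAM network inhibition above 8.4% in each of two replicates, 3 SD over the compound average; inconclusive = above 8.4% inhibition in only one replicate; inactive = 8.4% inhibition or less in each replicate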;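 note: 0% = DMSO untreated cells without growth and 100% = 10 µM 1-NA-PP1 full growth; higher means more yeast growth rescued from 5-FOA killing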); conditions: S. cerevisiae cbk1-as DSE1-URA3 strain, 5-FOA growth OD615, 2 d; at 50 µM; stronger effect = higher value
[5] = SK-BR-3 cell growth inhibitors, pilot screen, 24 h, human (AID 572;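 active = viability at or below 10% of carrier control in both of two separate runs; inconclusive = viability at or below 10% in only one of the two runs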;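 note: compound exposure lasted between 18 and 24 h rather than exactly 24 h; 100% = carrier-treated control wells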); conditions: SK-BR-3 viability, CellTiter-Glo luminescence, at 10 µM, stronger effect = lower value
[6] = growth suppression of beta-catenin knockout HCT116, pilot screen, human colon tumor cells (AID 823;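 active = cell viability at or below a set limit in both duplicate runs, the limit being the all-compound median minus 4 SD, cut at about 23% in these data, passing the limit was not always enough; inconclusive = no clear call, values can overlap the other calls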;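 note: 0% = wells killed by 20 µM Hyamine and 100% = untreated DMSO cell wells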); conditions: CellTiter-Glo, 60 h, at 10 µM, stronger effect = lower value
[7] = growth suppression of PTEN-deleted HCT116, pilot screen, cell-based, HCT116 clonal line, CellTiter-Glo (AID 824;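 active = viability at or below 27.92% in each of two runs, the all-compound median minus 4 SD; inconclusive = no clear call, values can overlap the other calls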;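 note: 0% = 20 µM Hyamine control and 100% = vehicle cell control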); conditions: 60 h, at 10 µM, stronger effect = lower value
[8] = reversal of MRP1-mediated doxorubicin resistance, pilot screen, H69AR cells, doxorubicin co-treatment (AID 601;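 active = viability loss from added drug above about 55%, and viability with drug at most 40%, in both replicates, limit read from the data, passing the limit was not always enough; inconclusive = both conditions met in only one replicate; inactive = neither replicate meets both conditions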); conditions: H69AR cells + 2 uM doxorubicin, CellTiter-Glo, 72 h; at 10 µM; stronger effect = higher value
[9] = OD615 S. cerevisiae growth inhibition, permissive medium, pilot counter-assay, permissive growth control for S. cerevisiae lifespan shortening project (AID 705;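 active = growth inhibition above 25% in both replicates, a cutoff set 3 SD above the mean; inconclusive = above 25% in only one replicate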); conditions: OD615, 24 h, at 10 µM, stronger effect = higher value
How it was run: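 Material: engineered DeaD yeast; compound dosing: one dose 10 µM, DMSO 0.25% final; measure: yeast growth inhibition indicated by reduced 24 h OD615; detection: OD615 turbidity read; incubation: cells pre-grown 4 h, then 24 h compound exposure, 30 °C humidified; medium: permissive synthetic complete medium with raffinose and galactose carbon sources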

[10] = Restrictive medium S. cerevisiae growth inhibition, OD615, pilot screen of yeast lifespan reduction project, restrictive growth control (AID 706;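 active = growth inhibition above a set limit, 3 SD over mean compound inhibition, in both replicates, cut at about 43% in these data; inconclusive = above the limit in only one replicate; inactive = at or below the limit in both replicates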;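 note: modified DeaD lifespan yeast strain shifted to restrictive glucose medium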); conditions: OD615, 48 h, at 10 µM, stronger effect = higher value
How it was run: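 material = engineered S. cerevisiae DeaD strain | medium = glucose-based CSMM-D restrictive medium | times = 4 h pre-incubation, 48 h exposure at 30 °C | technique = OD615 absorbance reading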

With `Cc1cccc(C2=NCC(=O)N(CC(=O)NCc3ccco3)c3sc4c(c32)CCCC4)c1` the viability [1] was inconclusive: 45.2% and the viability [2] was inconclusive: 55.9%.
For `Cc1cc(OC(=O)c2ccco2)c2c3c(c(=O)oc2c1)CCC3`, the inhibition [3] was inconclusive: 4.15% and the RAM network inhibition [4] was inactive: 4.5%.
In the case of `N=C(N)c1c(O)n(C2CCCCC2)c(=O)n(C2CCCCC2)c1=O`, the viability [5] is reported as inconclusive: 53.5%, the viability [1] is reported as active: 2.35% and the viability [2] is reported as active: 2.02%.
With `CCOC(=O)c1c(N)n(Cc2ccco2)c2nc3ccccc3nc12` the RAM network inhibition [4] was inconclusive: 9.66%.
For `C[C@H]1CCCC(=O)CCCCCc2cc(O)cc(O)c2C(=O)O1`, the viability [1] was inconclusive: 26.2%.
In the case of `O=c1c2ccccc2[se]n1-c1ccccc1`, the viability [2] is reported as inconclusive: 3.73%.
For `CN1C(=O)C(Cc2cccc3ccccc23)C(=O)N(C)C1=O`, the viability [1] was inactive: 95.4% and the viability [6] was inactive: 92.5%.
With `CCCCN1C(=O)NC(=O)C2(Cc3c(nc4c(C)cccn4c3=O)N3CCc4ccccc4C32)C1=O` (centres undefined) the viability [1] was inconclusive: 37.1% and the viability [2] was inconclusive: 55.8%.
With `CC(C)OCCCNC(=O)c1c(N)n(Cc2cccs2)c2nc3ccccc3nc12` the viability [1] was active: 6.24%.
In the case of `CN1C[C@H](CNC(=O)OCc2ccccc2)C[C@@H]2c3cccc4c3c(cn4C)C[C@H]21`, the viability [5] is reported as inconclusive: 50.5%.
For `Cc1ccc2c(c1)[C@@H]1CN(C)CC[C@@H]1N2C(=O)Nc1cccc(C(F)(F)F)c1`, the viability [5] was inconclusive: 67.5% and the viability [1] was inconclusive: 21.8%.
In the case of `C=C1CC[C@@]2(O)[C@H]3Cc4ccc(O)c5c4[C@@]2(CCN3CC2CC2)[C@H]1O5`, the viability [1] is reported as inactive: 95.2%.
For `Cc1ccc(Cn2c(C)c3cnn(CC(=O)N4CCC5(CC4)OCCO5)c(=O)c3c2C)cc1`, the viability [2] was inconclusive: 53.8%.
With `[N-]=[N+]=CC(=O)OC[C@H](N)C(=O)O` the viability [2] was inactive: 88.5%.
With `CCn1nc(-c2ccccc2)nc2c(=O)n(C)c(=O)nc1-2` the viability [1] was active: 2.75%.
In the case of `O=C1c2ccccc2C(=O)N1Cc1nc2ccccc2c(=O)n1-c1ccc(Br)cn1`, the RAM network inhibition [4] is reported as inconclusive: 9.08%.
For `Cc1ccc(O)c(CN2CCN(c3ccccc3)CC2)c1`, the viability [5] was inactive: 94%.
In the case of `CCOC(=O)C(C)Oc1cc(C)cc2oc(=O)c3c(c12)CCCC3` (centres undefined), the viability [7] is reported as inconclusive: 68.8% and the RAM network inhibition [4] is reported as inconclusive: 16.7%.
With `Clc1ccc(COC(Cn2ccnc2)c2ccc(Cl)cc2Cl)cc1` (centres undefined) the viability [2] was inconclusive: 38.5%.
For `Cc1c2ccncc2c(C)c2c1[nH]c1ccccc12`, the viability [5] was inconclusive: 4%, the viability [1] was active: 1.5% and the viability [2] was inconclusive: 1.16%.
In the case of `CCOc1ccc(C2SCC(=O)Nc3c2c(=O)[nH]n3C2CCCCCC2)cc1` (centres undefined), the viability [2] is reported as inconclusive: 58.3%.
In the case of `COC(=NC1CCCC1)C(O)c1c[nH]c2ccccc12` (centres undefined), the viability [2] is reported as inactive: 108%.
In the case of `O=C(CN1C2CCC1CC(O)(c1cccnc1)C2)Nc1ccc2c(c1)OCO2` (centres undefined), the differential viability (reversal) [8] is reported as inactive: 2.46%.
For `CN1CSC(=S)N(C)C1`, the growth inhibition [9] was active: 51.5%.
In the case of `CCCCCCn1c(=O)c(C(=O)Nc2ccncc2)c(O)c2ccccc21`, the growth inhibition [9] is reported as active: 93.5% and the growth inhibition [10] is reported as active: 97.4%.
With `COc1cc(C2SCC(=O)Nc3c2c(=O)[nH]n3C2CCCCCC2)cc(OC)c1OC` (centres undefined) the growth inhibition [10] was inactive: -4.26%.
With `O=C(O)C1CN2CCC1CC2` (centres undefined) the inhibition [3] was inactive: 0.99%.
For `Cc1ccc(-n2nc(C)c3c2NC(=O)CSC3c2ccc3c(c2)OCO3)cc1` (centres undefined), the inhibition [3] was inactive: 0.385%.
